# Values quoted from earlier work, collected in article PMC11006913.
# Where a chain is given by its changes, count along the chain named. The list shows a part of the results.
# Legend:
# Details in all cases: PBM; conditions not shown; double strand, one strand shown; scale: upbm affinity estimate (log intensity, higher = more binding, comparable within an allelic series)
# ARX (Homo sapiens) = ARX (Homo sapiens) (UniProt Q96QS3)
# ARX L343Q (Homo sapiens) = ARX L343Q (Homo sapiens) (UniProt Q96QS3)
# ARX P353L (Homo sapiens) = ARX P353L (Homo sapiens) (UniProt Q96QS3)
# ARX P353R (Homo sapiens) = ARX P353R (Homo sapiens) (UniProt Q96QS3)
# ARX R332H (Homo sapiens) = ARX R332H (Homo sapiens) (UniProt Q96QS3)
# ARX T333N (Homo sapiens) = ARX T333N (Homo sapiens) (UniProt Q96QS3)
# [1] = target: HOXD13 I297V (Homo sapiens) (UniProt P35453)
# [2] = target: HOXD13 I322L (Homo sapiens) (UniProt P35453)
# [3] = target: HOXD13 N298S (Homo sapiens) (UniProt P35453)
# [4] = target: HOXD13 Q325K (Homo sapiens) (UniProt P35453)
# [5] = target: HOXD13 Q325R (Homo sapiens) (UniProt P35453)
# [6] = target: HOXD13 R306W (Homo sapiens) (UniProt P35453)
# [7] = target: HOXD13 S316C (Homo sapiens) (UniProt P35453)
# [8] = target: T1, HESX1 E149K (Homo sapiens) (UniProt Q9UBX0)
# T1 sequence: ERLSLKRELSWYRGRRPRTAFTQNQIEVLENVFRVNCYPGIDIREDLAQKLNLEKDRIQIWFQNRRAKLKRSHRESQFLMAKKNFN
# [9] = target: T2, HESX1 N125S (Homo sapiens) (UniProt Q9UBX0)
# T2 sequence: T1 sequence with N31S, K55E
# [10] = target: T3, HESX1 R160C (Homo sapiens) (UniProt Q9UBX0)
# T3 sequence: T1 sequence with K55E, R66C
# ISX (Homo sapiens) = ISX (Homo sapiens) (UniProt Q2M1V0)
# ISX R83Q (Homo sapiens) = ISX R83Q (Homo sapiens) (UniProt Q2M1V0)
# [11] = target: PROP1 R112Q (Homo sapiens) (UniProt O75360)
# [12] = target: PROP1 R99Q (Homo sapiens) (UniProt O75360)
Sequence,binding signal (ARX (Homo sapiens)),binding signal (ARX L343Q (Homo sapiens)),binding signal (ARX P353L (Homo sapiens)),binding signal (ARX P353R (Homo sapiens)),binding signal (ARX R332H (Homo sapiens)),binding signal (ARX T333N (Homo sapiens)),binding signal [1],binding signal [2],binding signal [3],binding signal [4],binding signal [5],binding signal [6],binding signal [7],binding signal [8],binding signal [9],binding signal [10],binding signal (ISX (Homo sapiens)),binding signal (ISX R83Q (Homo sapiens)),binding signal [11],binding signal [12]
CCGCGTCG [8-mer CCGCGTCG],10.2,10.2,10.2,10.1,10.2,10.3,9.53,9.56,9.4,9.54,9.36,9.39,9.38,–,–,–,–,–,–,–
CAAATTAA [8-mer CAAATTAA],12.7,10.7,12.1,10.6,10.8,11.9,–,–,–,–,–,–,–,11.1,11.1,10.2,14.7,13.3,12.5,11.9
GTAATTGA [8-mer GTAATTGA],12.8,10.9,12.5,10.7,11,11.9,–,–,–,–,–,–,–,11.6,12,10.3,15.1,13.7,12.7,12.2
GAACCCCC [8-mer GAACCCCC],10,10.1,10.1,9.87,9.99,10.1,9.39,9.31,9.42,9.42,9.32,9.2,9.35,–,–,–,–,–,–,–
AATTAGCT [8-mer AATTAGCT],12.8,10.9,12.5,10.6,10.9,12,–,–,–,–,–,–,–,11.5,11.1,–,14.5,13.4,12.7,12.2
AATTAACA [8-mer AATTAACA],12.8,11,12.3,10.8,11,12,–,–,–,–,–,–,–,11.5,11.6,10.4,15.1,13.9,12.7,12.2
ATTAATGA [8-mer ATTAATGA],12.8,10.9,12.4,10.8,11.1,11.9,12.3,11.4,12.6,11.4,11.9,11.6,12.2,–,11.2,–,14.7,13.5,12.7,–
AATTATGT [8-mer AATTATGT],12.7,10.9,12.1,10.8,11.1,11.8,–,–,–,–,–,–,–,11.4,–,–,–,–,12.6,12.2
ATTAATCA [8-mer ATTAATCA],12.8,11,12.2,10.9,11.2,12,–,–,–,–,–,–,–,11.5,11.2,10.5,–,–,12.7,12.1
AATTAGTG [8-mer AATTAGTG],13,11,12.5,10.8,11,12.1,–,–,–,–,–,–,–,11.5,11.6,10.3,14.9,13.9,12.7,12.3
AATTAGAG [8-mer AATTAGAG],12.7,10.8,12.2,10.7,10.9,11.8,–,–,–,–,–,–,–,–,11.1,–,14.6,13.3,–,–
AATTAGAT [8-mer AATTAGAT],12.9,10.8,12.4,10.7,11.1,11.9,–,–,–,–,–,–,–,11.3,11.3,10.3,–,–,12.8,12.2
AATTAGTC [8-mer AATTAGTC],12.9,10.9,12.5,10.7,11,12,–,–,–,–,–,–,–,11.4,11.3,10.3,14.7,13.5,12.7,12.2
AATTATCA [8-mer AATTATCA],12.7,10.9,12.1,10.9,11.1,11.8,–,–,–,–,–,–,–,11.4,11.3,10.4,–,–,12.6,12.1
GCTCGGCC [8-mer GCTCGGCC],10.1,10.1,10.2,10,10,10.1,9.36,9.31,9.33,9.37,9.39,9.33,9.44,–,–,–,–,–,–,–
AATTAACT [8-mer AATTAACT],12.9,10.9,12.4,10.8,11.1,12,–,–,–,–,–,–,–,11.6,11.8,10.4,15,13.9,12.8,12.3
AACTAATT [8-mer AACTAATT],12.8,10.9,12.3,10.8,11,11.8,–,–,–,–,–,–,–,11.4,11,10.3,–,13.3,12.7,12.2
AATTAACC [8-mer AATTAACC],12.7,10.8,12.1,10.7,10.9,11.9,–,–,–,–,–,–,–,11.3,–,–,–,13.3,12.6,12.1
